# Reference: PubChem BioAssay AID686979 (National Center for Advancing Translational Sciences (NCATS), 2013)
# Several values for one entry are separate records, joined by “and”; a condition that tells them apart may be missing. Equal values may be shown once. In all, about 420,000 compounds went through this assay and about 50,000 (12%) were called active. Inconclusive results, whose numbers are uncertain, are shown with a selection of clear calls. Calls come from the whole dose curve; as a rule, active = well fitted inhibition curve with a large enough effect; inconclusive = small, poorly fitted or top-dose-only effect; inactive = flat fitted curve, though single readings scatter. Potencies of inconclusive entries are doubtful fits and often do not repeat.
# Assay: qHTS for Inhibitors of human tyrosyl-DNA phosphodiesterase 1 (TDP1): qHTS in cells in presence of CPT; note: nearly all actives have a fitted effect of over 55% in size
# Details: chicken DT40 Tdp1-/-;hTDP1 cells + 20 nM CPT, ATP luminescence, 48 h; activity change, negative = growth inhibition: at 46.2 µM (top of the series)
# How it was run: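 Cell growth measured by CellTiter-Glo luminescence after a minimum 48 h, 37 C compound exposure with 20 nM CPT in Tdp1-knockout DT40 cells stably expressing hTDP1, seeded 400/well; qHTS titration format.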
# % is set by controls: 0 for no effect and ±100 for the full control effect; potency is the fitted concentration of half-maximal effect; tags give direction and shape of the fitted curve.
Compound,Potency,"activity change, negative = growth inhibition"
CCOC(=O)c1c(C)[nH]c(C)c1S(=O)(=O)NCC(=O)N1CCN(c2cccc(C)c2)C(C)C1 (stereo not given),"inconclusive: 23.1 µM [inhibitor, single point]",–
O=S1(=O)CCOC[C@H](c2ccccc2)N1Cc1ccccc1F,"inconclusive: 25.1 µM [inhibitor, single point] and inconclusive: 29.1 µM [inhibitor, single point]",–
COC(=O)CSc1nc2[nH]ncc2c(=O)[nH]1,–,inactive: -10%
Cc1ccc(/C=C2\SC(=O)N(CCNC(=O)C3CSC4(C)CCC(=O)N34)C2=O)cc1 (stereo not given),"inconclusive: 18.4 µM [inhibitor, single point]",–
CN1CCN(c2ccccc2/C=C2/C(=O)Nc3ccccc32)CC1,"inconclusive: 16.4 µM [inhibitor, single point]",–
Cc1cccc(NC2=CC(c3cccc(Br)c3)N(c3cccc(C)c3)C2=O)c1 (stereo not given),"inconclusive: 23.1 µM [inhibitor, single point]",–
COC(=O)[C@@H](NC(=O)N(C1CCCCC1)C1CCCCC1)C(C)C,active: 11.2 µM,–
CC(=O)c1ccc(NC(=O)c2cnn3ccccc23)cc1,–,inactive: -22.7%
CC[C@@]1(C(=O)OC)N[C@H](CN(C)C(=O)COC)[C@@H]2C(=O)N(Cc3ccccc3)C(=O)[C@@H]21,–,inactive: -11.4%
Cc1nc2ccc(S(=O)(=O)NC(CC(C)C)C(=O)N3CCN(c4ccc(F)cc4)CC3)cc2s1 (stereo not given),"inconclusive: 0.517 µM [inhibitor, full curve, poor fit]",–
O=S(=O)(c1ccccc1)N1CCC2(CC1)CN(C(c1ccccc1)c1ccccc1)C2,–,inactive: 6.88%
Cc1ccc2c(=O)n3c(nc2c1)C(C)NC(=O)c1cccnc1-3 (stereo not given),–,inactive: -18.7%
Cc1ccc(CNC(=O)c2c(O)nc3c(C)cccn3c2=O)cc1,"inconclusive: 18.4 µM [inhibitor, single point]",–
CCOC(=O)C1=C(COC(=O)CSc2ccc(C)cc2)NC(=O)NC1C (stereo not given),–,inactive: 1.94%
Cc1cccc(C)c1Nc1nnc(SCc2cc([N+](=O)[O-])cc3c2OCOC3)s1,"inconclusive: 11.2 µM [inhibitor, partial curve, poor fit]",–
CCOc1cc2c(Cl)ncnc2c(OCC)c1OCC,–,inactive: 1.52%
Cc1c(C(=O)N2CCN(Cc3cccs3)CC2)oc2ccccc12,"inconclusive: 29.1 µM [inhibitor, single point]",–
COC(=O)c1c(C)n(-c2ccc(C)cc2)c2ccc(O)cc12,active: 35.5 µM,–
Cc1ccc(NS(=O)(=O)c2cc(C(=O)NCc3ccccn3)ccc2Cl)cc1,–,inactive: -8.2%
CN(C)c1ccc(NS(=O)(=O)c2cc3c4c(c2)CC(=O)N4CCC3)cc1,"inconclusive: 23.1 µM [inhibitor, single point]",–
Cc1c(C(=O)N2CCCCC2CCN2CCCC2=O)oc2c(F)cccc12 (stereo not given),"inconclusive: 32.6 µM [inhibitor, single point]",–
COc1ccc(OC)c(NC(=O)c2ccccc2NC(=O)c2ccco2)c1,"inconclusive: 23.1 µM [inhibitor, single point]",–
Cc1ccccc1-c1noc(-c2cccnc2N(C)Cc2ccc(Cl)cc2)n1,"inconclusive: 32.6 µM [inhibitor, single point]",–

Compound,Potency,"activity change, negative = growth inhibition"
C/C(=N/OC(=O)C1CC1c1ccccc1)c1ccccc1 (stereo not given),"inconclusive: 2.31 µM [inhibitor, single point]",–
Cc1cccc(Nc2nnc(-c3ccc(N4CCOCC4)c([N+](=O)[O-])c3)c3ccccc23)c1,"inconclusive: 20.6 µM [inhibitor, single point]",–
Cc1cccc2cc(C(c3nnnn3Cc3ccc4c(c3)OCO4)N3CCCC3)c(=O)[nH]c12 (stereo not given),–,inactive: -24%
COc1ccc(C(=O)/C=C/c2ccc(OC)c(COc3ccc(F)cc3)c2)cc1,"inconclusive: 29.1 µM [inhibitor, single point]",–
CCc1ccc2[nH]c(=O)c(CN(Cc3ccco3)S(=O)(=O)c3ccc4c(c3)OCCO4)cc2c1,"inconclusive: 29.1 µM [inhibitor, single point]",–
O=C(c1ccccc1)N(Cc1ccc2c(c1)OCO2)Cc1nc2ccccc2c(=O)[nH]1,–,inactive: -17.9%
O=C(CCc1c[nH]c2ccccc12)OCC(=O)c1ccccc1,"inconclusive: 29.1 µM [inhibitor, single point]",–
Clc1ccccc1C(c1ccccc1)(c1ccccc1)n1ccnc1,active: 13 µM and active: 8.05 µM,–
COc1ccc(NCC(=O)Nc2cccc(S(=O)(=O)N3CCCC3)c2)cc1Cl,"inconclusive: 29.1 µM [inhibitor, single point]",–
COc1ccc(-c2oc3c(c2-c2cnc(OC)nc2)C(O)CC3)cc1 (stereo not given),"inconclusive: 20.6 µM [inhibitor, single point]",–
CCOC(=O)c1cccc(NC(=O)CCC(=O)N2CC(C)Oc3ccc(C)cc32)c1 (stereo not given),active: 23.1 µM,–
CC(NC(=O)c1ccc(Br)s1)c1ccncc1 (stereo not given),–,inactive: -0.777%
O=C(C1CC1)N1CCN(c2nc3c(Cl)cccc3s2)CC1,active: 20.6 µM,–
CCSc1nsc(NC(=O)Nc2ccccc2F)n1,active: 18.4 µM,–
CO/N=C1\CN(c2nc3c(cc2F)c(=O)c(C(=O)O)cn3C2CC2)CC1CN (stereo not given),active: 4.61 µM,–
O=C(Cn1c(N2CCN(c3ccccc3)CC2)nc2ccccc21)c1ccccc1,"inconclusive: 29.1 µM [inhibitor, single point]",–
COc1ccc(CCNC(=O)CSc2nnnn2-c2cccc(C(C)=O)c2)cc1OC,–,inactive: -3.95%
O=[N+]([O-])c1ccccc1S(=O)(=O)Nc1cccc(-c2ccc(N3CCOCC3)nn2)c1,"inconclusive: 29.1 µM [inhibitor, single point]",–
CC(=O)Nc1ccc(S(=O)(=O)NNC(=O)c2ccc3c(c2)OCO3)cc1,–,inactive: 7.3%
COc1ccc(C(=O)Nc2ccc(Nc3ccccc3)cc2)cc1Br,"inconclusive: 29.1 µM [inhibitor, single point]",–
CC(C)C(N)c1csc(NC(=O)Nc2ccc(OC(F)(F)F)cc2)n1 (stereo not given),"inconclusive: 18.4 µM [inhibitor, single point]",–
CCOC(=O)C1=C(COC(=O)CCC(=O)c2ccc(C)cc2)NC(=O)NC1C (stereo not given),–,inactive: -23.1%
